Experimental data reported in PubChem BioAssay AID485344 (National Center for Advancing Translational Sciences (NCATS), 2010).
The campaign covered roughly 340,000 compounds. About 6,900 (2%) were called active. Rule as the data show it: active = inhibition above about 30%; inactive = below that, where a call was filed. The list shows a part of the results, in another mix than the full data. Where no call is shown, the source filed none.

The compounds below were run against D(2) dopamine receptor (Homo sapiens) (UniProt P14416) (assay: HTS Assay for Allosteric Antagonists of the Human D2 Dopamine Receptor: Primary Screen for Antagonists). Details: HEK293 TREx D2 cells, calcium flux, dopamine EC80; at 10 µM; stronger effect = higher value.
Sequence of UniProt P14416 (P14416 whole entry, looked up): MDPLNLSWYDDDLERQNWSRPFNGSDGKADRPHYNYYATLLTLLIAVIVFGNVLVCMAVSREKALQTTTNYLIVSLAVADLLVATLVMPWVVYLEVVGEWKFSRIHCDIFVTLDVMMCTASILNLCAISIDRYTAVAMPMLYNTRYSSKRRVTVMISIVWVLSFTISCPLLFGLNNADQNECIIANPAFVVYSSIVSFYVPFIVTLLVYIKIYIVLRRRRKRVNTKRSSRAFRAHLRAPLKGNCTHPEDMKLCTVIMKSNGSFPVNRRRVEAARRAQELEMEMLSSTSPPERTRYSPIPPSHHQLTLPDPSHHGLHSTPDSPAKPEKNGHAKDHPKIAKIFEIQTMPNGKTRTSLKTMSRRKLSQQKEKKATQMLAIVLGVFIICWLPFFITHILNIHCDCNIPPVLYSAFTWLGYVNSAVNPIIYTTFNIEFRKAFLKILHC
Procedure, shortened: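 Cells plated overnight at 30 C with tetracycline; no-wash calcium dye, 30–90 min RT; 10 s baseline; compound pinned; 180 s read; EC80 dopamine added; another 180 s read.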
Also: 0% is about no effect.

SMILES | inhibition
CC(C)C1C(=O)Nc2ccc(S(=O)(=O)NCCc3ccc(Cl)cc3)cc21 (stereo unspecified) | 0.867%
CCCOc1ccc(-c2nn(-c3ccccc3)cc2C2NC(=O)NC(C)=C2C(=O)OC)cc1C (stereo unspecified) | 13.3%
CCc1cccc(NC(=O)c2ccc(CN3C(=O)C(C)=C(c4ccc(OC)cc4)S3(=O)=O)cc2)c1 | -28%
CCOc1ccccc1NC(=O)Nc1nnc(N2CCCCCC2)s1 | -23.4%
Cc1ccccc1CNC(=O)C1CCCN(S(=O)(=O)N(C)c2ccc(F)cc2)C1 (stereo unspecified) | 3.54%
CCC(=O)N1CCc2cc(Br)cc(S(=O)(=O)CCC(=O)NCCc3ccc(Cl)cc3)c21 | -2.22%
CC(C)CCN(Cc1ccco1)C(=O)c1cc2c(Cl)nc3ccccc3c2s1 | 1.87%
COc1ccc([N+](=O)[O-])cc1NC(=S)NC(NC(=O)Cc1ccc(OC)c(OC)c1)C(Cl)(Cl)Cl (stereo unspecified) | active: 73.9%
COc1ccc(-c2noc(CSCC(=O)Nc3cccc(C(F)(F)F)c3)n2)cc1OC | -3.08%
Cc1occc1C(=O)NNC(=O)c1ccccc1C(=O)O | active: 30.7%
COc1ccc(-c2cc(C)no2)cc1S(=O)(=O)NCCCN1CCCCCC1 | active: 33.7%
CCOc1ccc(C2Nc3ccccc3-c3nnc(SCc4ccccc4)nc3O2)cc1OC (stereo unspecified) | -12.3%
Cc1cc2c(OCC(O)CNC3CCCCC3)cccc2[nH]1 (stereo unspecified) | active: 60.2%
COc1cc(C(=O)Nc2ccc3oc(-c4ccccc4)nc3c2)cc(OC)c1OC | -9.51%
COc1cc(NC(=O)Cn2ncc3c([nH]c4ccc(C)cc43)c2=O)cc(OC)c1OC | -9.02%
COc1cc(Cl)c(C)cc1NC(=O)CSc1ncc(S(=O)(=O)c2ccc(C(C)(C)C)cc2)c(=O)[nH]1 | 3.11%
Cn1c2ccccc2c2c(C(=O)N3CCN(c4ccc(F)cc4)CC3)cn(C3CCCCC3)c(=O)c21 | -5.23%
O=C1Nc2ccc(S(=O)(=O)Nc3ccccc3O)c3cccc1c23 | -4.38%
CCOc1ccccc1Nc1cc(-c2ccccc2)nc(C)n1 | -4.48%
COc1ccc(NC(=O)CSc2nnc(-c3cccs3)o2)cc1 | 16.4%
Cc1cc(C)cc(OC(=O)c2snnc2C)c1 | 18.8%

SMILES | inhibition
COc1cccc(-n2ccnc2SCC(=O)Nc2ccccc2)c1 | active: 50.4%
CC(NC(=O)Nc1ccccc1C(F)(F)F)c1c(-n2cccc2)sc2c1CCCC2 (stereo unspecified) | 15%
CCOC(=O)C1(CCOc2ccccc2)CCN(S(=O)(=O)N(C)C)CC1 | active: 42.9%
COc1ccccc1CNC(=O)Cn1ncc2c3ccccc3n(Cc3ccccc3C)c2c1=O | 2.07%
COc1ccc(NCc2cc3cc4c(cc3n(CC(=O)Nc3ccc(C)cc3)c2=O)OCO4)cc1 | -2.75%
CCOC(=O)c1ccc(NS(=O)(=O)c2ccc(Br)s2)cc1 | -1.4%
COc1ccccc1NC(=O)CSc1oc(-c2cccs2)nc1S(=O)(=O)c1ccc(Br)cc1 | -11.9%
CN(C(=O)CSc1nc2c(c(=O)[nH]1)CCCC2)c1ccccc1 | 2.38%
CCOc1ccccc1NC(=O)C1CCN(S(=O)(=O)c2ccccc2)CC1 | -9.13%
CCOc1ccc(S(=O)(=O)N2CCN(c3c(C)cccc3C)CC2)c2ccccc12 | 0.953%
COc1ccc(-c2nc(SCC(=O)Nc3ccc4c(c3)OCO4)c(-c3ccc(OC)cc3)[nH]2)cc1 | 5.82%
Cc1cccc(NC(=O)CSc2nc3c([nH]c4ccccc43)c(=O)n2C)c1C | -27.7%
CCOc1ccc(-n2c(Cc3cc(=O)[nH]c(=O)[nH]3)nnc2SCC)cc1 | active: 39.7%
C=CCC1(O)C(=O)N2C(=C1C(=O)N1CCOCC1)c1ccccc1CC2(C)C (stereo unspecified) | active: 44.8%
COC(=O)c1[nH]c2c(c1C)C(=O)CC(c1ccc(C)cc1)C2 (stereo unspecified) | active: 32.4%
CCN(CC)CCOc1nnc(-c2ccc(C)cc2)c2ccccc12 | active: 35.6%
CCOc1ccc(NC(=O)c2ccc(-c3nc(COc4ccccc4)c(C)o3)cc2)cc1 | -10.2%
CC(NC(=O)C1CCN(C(=O)c2ccc(F)cc2)CC1)c1ccc(-n2ccnc2)cc1 (stereo unspecified) | active: 31%
O=C(CC12CC3CC(CC(Br)(C3)C1)C2)NC1CCCC1 | active: 33.7%
Cc1c(CN2CC[C@@H](N3CCN(c4ccccn4)CC3)[C@H](O)C2)[nH]c2ccc(F)cc12 | active: 51.4%
O=C(NCCc1csc(-c2cccc(F)c2)n1)c1cccs1 | 14%

SMILES | inhibition
Cc1cccc(NC(=S)NC2CCN(Cc3ccccc3)CC2)c1C | active: 93.9%
O=C(Cc1ccccc1)Nc1sc2c(c1C(=O)Nc1ccc(Cl)cc1)CCCC2 | -18.6%
CCc1c(C)nc2nncn2c1Nc1ccc(C(C)C)cc1 | 19.8%
Cc1ccc(CNC(=O)c2ccc(-n3cnc4cccnc43)cc2)cc1 | 4.27%
O=C(c1ccc2c(c1)N(Cc1ccccc1F)C(=O)c1ccccc1S2=O)N1CCN(c2ccccc2)CC1 (stereo unspecified) | 5.85%
CCc1ccc(NC(=O)Cn2c3ncccc3c(=O)n2-c2ccc(C)c(C)c2)cc1 | 18.7%
Cc1ccc(NC(=O)/C(C#N)=C/c2cc(C)n(-c3ccc(F)cc3)c2C)cc1C | 3.83%
CCOC(=O)c1ccc(NC(=O)c2ncn(-c3ccccc3)n2)cc1 | 7.05%
CC(NC(=O)Nc1cc(Cl)ccc1Cl)c1c(-n2cccc2)sc2c1CCCC2 (stereo unspecified) | 0.717%
COc1ccc(N2CCN(C(=O)CCn3c(=O)c4cccn4c4cccnc43)CC2)cc1 | -20.8%
CCN(CC)c1ccc(C(=O)N2CCC(c3c[nH]c4ccccc34)(c3c[nH]c4ccccc34)CC2)cc1 | 9.97%
COCCn1c(=O)[nH]c2cc(C(=O)NCCN3CCN(c4ccccc4)CC3)ccc2c1=O | active: 144%
O=C(NC1CCN(Cc2ccccc2)CC1)c1ccc(Cn2c(=O)c3ccccc3n(Cc3ccccc3)c2=O)cc1 | 12.1%
COc1cc(/C=C2\SC(=N)N(c3ccc(F)cc3)C2=O)ccc1O | active: 55.8%
Cc1ccc(NC(=O)N2CCc3cc(S(=O)(=O)N4CCC(C)CC4)ccc32)cc1C | 5.92%
CCOC(=O)c1ccc(Nc2ncnc3c2cnn3-c2cccc(Cl)c2)cc1 | -7.42%
CCN(C(=O)c1cc2c(s1)-c1ccccc1OC2)c1cc(Cl)ccc1OC | 3.32%
FC(F)(F)c1cccc(N2CCN(CC3CC=CCC3)CC2)c1 (stereo unspecified) | active: 73.2%
O=S(=O)(NCCS(=O)(=O)N1CCN(c2ccccc2F)CC1)c1ccc(Cl)cc1 | 7.92%
